Source: PMC9911399, “Two distinct binding modes provide the RNA-binding protein RbFox with extraordinary sequence specificity”
Residue numbers refer to the chain shown, from its start. Some of the results follow.

B1: ACGUUAC (DNA:RNA)
RNA: GGGAGACCGGAAUUCAGAUUGUCCACGUUACUUAAAUCCCGUCGUAGCCACCA
DNA 1: CAATCTGAATTCCGGTCTCCC
DNA 2: TGGTGGCTACGACGGGATT
B2: CGGCAAC (DNA:RNA)
RNA: B1 RNA with A25C, C26G, U28C, U29A
DNA 1: CAATCTGAATTCCGGTCTCCC
DNA 2: TGGTGGCTACGACGGGATT
B3: AUUUCGU (DNA:RNA)
RNA: B1 RNA with C26U, G27U, U29C, A30G, C31U
DNA 1: CAATCTGAATTCCGGTCTCCC
DNA 2: TGGTGGCTACGACGGGATT
B4: AAGUAGC (DNA:RNA)
RNA: B1 RNA with C26A, U29A, A30G
DNA 1: CAATCTGAATTCCGGTCTCCC
DNA 2: TGGTGGCTACGACGGGATT
B5: ACAGAAU (DNA:RNA)
RNA: B1 RNA with G27A, U28G, U29A, C31U
DNA 1: CAATCTGAATTCCGGTCTCCC
DNA 2: TGGTGGCTACGACGGGATT
B6: ACCUCGC (DNA:RNA)
RNA: B1 RNA with G27C, U29C, A30G
DNA 1: CAATCTGAATTCCGGTCTCCC
DNA 2: TGGTGGCTACGACGGGATT
B7: CGUAUGU (DNA:RNA)
RNA: B1 RNA with A25C, C26G, G27U, U28A, A30G, C31U
DNA 1: CAATCTGAATTCCGGTCTCCC
DNA 2: TGGTGGCTACGACGGGATT
B8: ACUGUGC (DNA:RNA)
RNA: B1 RNA with G27U, U28G, A30G
DNA 1: CAATCTGAATTCCGGTCTCCC
DNA 2: TGGTGGCTACGACGGGATT
B9: GACCAGA (DNA:RNA)
RNA: GGGAGACCGGAAUUCAGAUUGUCCGACCAGAUUAAAUCCCGUCGUAGCCACCA
DNA 1: CAATCTGAATTCCGGTCTCCC
DNA 2: TGGTGGCTACGACGGGATT
B10: CCCUCAC (DNA:RNA)
RNA: B1 RNA with A25C, G27C, U29C
DNA 1: CAATCTGAATTCCGGTCTCCC
DNA 2: TGGTGGCTACGACGGGATT
B11: ACACUGG (DNA:RNA)
RNA: B1 RNA with G27A, U28C, A30G, C31G
DNA 1: CAATCTGAATTCCGGTCTCCC
DNA 2: TGGTGGCTACGACGGGATT
B12: AUAUGCA (DNA:RNA)
RNA: B1 RNA with C26U, G27A, U29G, A30C, C31A
DNA 1: CAATCTGAATTCCGGTCTCCC
DNA 2: TGGTGGCTACGACGGGATT
B13: GGAUUUC (DNA:RNA)
RNA: B1 RNA with A25G, C26G, G27A, A30U
DNA 1: CAATCTGAATTCCGGTCTCCC
DNA 2: TGGTGGCTACGACGGGATT
B14: UUGGACG (DNA:RNA)
RNA: B1 RNA with A25U, C26U, U28G, U29A, A30C, C31G
DNA 1: CAATCTGAATTCCGGTCTCCC
DNA 2: TGGTGGCTACGACGGGATT
B15: GUAACCA (DNA:RNA)
RNA: B9 RNA with A26U, C27A, C28A, A29C, G30C
DNA 1: CAATCTGAATTCCGGTCTCCC
DNA 2: TGGTGGCTACGACGGGATT
B16: AGAGCAA (DNA:RNA)
RNA: B1 RNA with C26G, G27A, U28G, U29C, C31A
DNA 1: CAATCTGAATTCCGGTCTCCC
DNA 2: TGGTGGCTACGACGGGATT
B17: UUGGCUA (DNA:RNA)
RNA: B1 RNA with A25U, C26U, U28G, U29C, A30U, C31A
DNA 1: CAATCTGAATTCCGGTCTCCC
DNA 2: TGGTGGCTACGACGGGATT
B18: AAACCGG (DNA:RNA)
RNA: B9 RNA with G25A, C27A, A29C, A31G
DNA 1: CAATCTGAATTCCGGTCTCCC
DNA 2: TGGTGGCTACGACGGGATT
B19: GUGAUAC (DNA:RNA)
RNA: B1 RNA with A25G, C26U, U28A
DNA 1: CAATCTGAATTCCGGTCTCCC
DNA 2: TGGTGGCTACGACGGGATT
B20: UCCACAC (DNA:RNA)
RNA: B1 RNA with A25U, G27C, U28A, U29C
DNA 1: CAATCTGAATTCCGGTCTCCC
DNA 2: TGGTGGCTACGACGGGATT

target: T1, RBFOX1 RRM RbFoxmut (Fox-RRM*) (Homo sapiens, UniProt Q9NWB1 109-208, R118D;E147R;N151S;E152T); assay: EMSA; HiTS-Eq, 1 nM pool, 10 min; buffer printed only for the single-RNA assays: 10 mM Tris pH 7.5, 150 mM NaCl, 3.4 mM EDTA, 0.001% NP-40, 30 C; details: tags: His6 N-terminal (pET28a); label: 5' 32P
T1 sequence: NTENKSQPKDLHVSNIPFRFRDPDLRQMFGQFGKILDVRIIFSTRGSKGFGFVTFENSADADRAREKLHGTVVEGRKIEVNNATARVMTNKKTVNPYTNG
Outline: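 These values rest on relative association constants, computed from read-count changes of each RNA species versus the control reaction and normalised to the cognate motif. Reads came from free RNA recovered by 8% native PAGE after purified RbFox RRM (wild type or mutant) at increasing concentrations was equilibrated for 10 min in 50 µL with 1 nM of a 5′-radiolabelled pool with 7 randomized nucleotides and DNA-annealed flanks.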

First: B1
Second: B2
The binding signal of the first is higher: 0.0964 KA relative to UGCAUGU for the first, 0.0506 KA relative to UGCAUGU for the second.

First: B3
Second: B4
The binding signal of the first is higher: 0.126 KA relative to UGCAUGU for the first, 0.0939 KA relative to UGCAUGU for the second.

Compared with B5, B6 is higher in binding signal: 0.0937 KA relative to UGCAUGU for the first, 0.0949 KA relative to UGCAUGU for the second.

First: B7
Second: B8
The binding signal of the first is higher: 0.554 KA relative to UGCAUGU for the first, 0.135 KA relative to UGCAUGU for the second.

First: B9
Second: B10
The binding signal of the first is lower: 0.0823 KA relative to UGCAUGU for the first, 0.103 KA relative to UGCAUGU for the second.

First: B11
Second: B12
The binding signal of the first is lower: 0.123 KA relative to UGCAUGU for the first, 0.208 KA relative to UGCAUGU for the second.

First: B13
Second: B14
The binding signal of the first is higher: 0.0732 KA relative to UGCAUGU for the first, 0.0635 KA relative to UGCAUGU for the second.

First: B15
Second: B16
The binding signal of the first is higher: 0.111 KA relative to UGCAUGU for the first, 0.0663 KA relative to UGCAUGU for the second.

First: B17
Second: B18
The binding signal of the first is higher: 0.168 KA relative to UGCAUGU for the first, 0.08 KA relative to UGCAUGU for the second.

Compared with B19, B20 is lower in binding signal: 0.101 KA relative to UGCAUGU for the first, 0.0933 KA relative to UGCAUGU for the second.
